From patent publication US20070128190A1 (GLENMARK PHARMACEUTICALS S A, published 2007)

Target: T1, TMC-2206
T1 construct: murine IgG1/κ secreted by hybridoma BHA2.1; labelled with Eu-N1-ITC where used as tracer; also called BHA2.1
Assay: fusion protein competing Eu-TMC-2206 off α2β1-coated plate
Method: Wells in a 96 well microtiter plate were coated with platelet α2β1-integrin (custom-coated with human platelet α2β1 by GTI Inc., Wis.) and then blocked with nonfat milk. […] After concentration in prewashed MicroSep concentrators (30-kDa cutoff; Pall Life Sciences at 9500 rpm (7000×g) in a JA-20 rotor (Beckman Instruments, Inc.) for 20 minutes at 4° C.), antibodies were adjusted to 4.0 mg/mL with PBS containing a final concentration of 100 mM NaHCO₃, pH 9.3. The mAb/bicarbonate mixture (0.250 mL) was gently mixed into a vial containing 0.2 mg N¹-(p-isothiocyanatobenzyl)-diethylenetriamine-N¹,N²,N³N³-tetraacetic acid chelated with Eu³⁺ (Eu-N1-ITC; Perkin Elmer Life Sciences) and reacted overnight at 4° C. without stirring. Each labeled antibody mixture was applied to a separate PD-10 column (GE Biosciences, Piscataway, N.J.) pre-equilibrated with Running Buffer (50 mM Tris, pH 7.4 and 138 mM NaCl). Fractions (0.5 mL) were collected and assayed for total protein (Bradford reagent; Bio-Rad Laboratories, Hercules, Calif.) using a SpectraMax 384 absorbance plate reader and for europium after 1:10.000 dilution in DELFIA Enhancement Solution (Perkin-Elmer) by time-resolved fluorescence (TRF) using a Victor2 multi-label plate reader (Perkin Elmer). […]

T1 sequence (VH, as listed by the source, chain 1 of 2): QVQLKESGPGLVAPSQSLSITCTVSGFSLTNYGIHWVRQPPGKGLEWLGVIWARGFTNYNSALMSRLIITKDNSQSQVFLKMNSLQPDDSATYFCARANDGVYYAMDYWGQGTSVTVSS
T1 sequence (VL, as listed by the source, chain 2 of 2): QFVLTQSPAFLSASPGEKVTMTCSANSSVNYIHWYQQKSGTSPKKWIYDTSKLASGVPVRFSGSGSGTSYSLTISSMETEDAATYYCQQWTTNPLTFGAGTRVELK

B1: GST-hα2 I domain K78E (other)
chain: [sequence of about 200 residues omitted]GSSPDFQLSASFSPATQPCPSLIDVVVVCDESNSIYPWDAVKNFLEKFVQGLDIGPTKTQVGLIQYANNPRVVFNLNTYETKEEMIVATSQTSQYGGDLTNTFGAIQYARKYAYSAASGGRRSATKVMVVVTDGESHDGSMLKAVIDQCNHDNILRFGIAVLGYLNRNALDTKNLIKEIKAIASIPTERYFFNVSDEAALLEKAGTLGEQIFSIEGTVEFIVTD
notes: same construct as m41
B1 showed a Ki of 0.51 nM.
